Measurements as given in publication PMC4336329 (PLoS ONE, 2015).
Among all 310,000 compounds or so, about 14,000 (4.5%) showed an effect of 50% or more. Effects have a minus sign here. The list shows a part of the results.

biological target: human ether-à-go-go-related gene (hERG) potassium channel (human, UniProt Q12809); experiment: primary screen, population patch clamp on CHO cells stably expressing hERG
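Note: peak tail current of the secondary pulse compared with the same well before compound.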

Chain of human ether-à-go-go-related gene (hERG) potassium channel (Q12809 whole entry, looked up): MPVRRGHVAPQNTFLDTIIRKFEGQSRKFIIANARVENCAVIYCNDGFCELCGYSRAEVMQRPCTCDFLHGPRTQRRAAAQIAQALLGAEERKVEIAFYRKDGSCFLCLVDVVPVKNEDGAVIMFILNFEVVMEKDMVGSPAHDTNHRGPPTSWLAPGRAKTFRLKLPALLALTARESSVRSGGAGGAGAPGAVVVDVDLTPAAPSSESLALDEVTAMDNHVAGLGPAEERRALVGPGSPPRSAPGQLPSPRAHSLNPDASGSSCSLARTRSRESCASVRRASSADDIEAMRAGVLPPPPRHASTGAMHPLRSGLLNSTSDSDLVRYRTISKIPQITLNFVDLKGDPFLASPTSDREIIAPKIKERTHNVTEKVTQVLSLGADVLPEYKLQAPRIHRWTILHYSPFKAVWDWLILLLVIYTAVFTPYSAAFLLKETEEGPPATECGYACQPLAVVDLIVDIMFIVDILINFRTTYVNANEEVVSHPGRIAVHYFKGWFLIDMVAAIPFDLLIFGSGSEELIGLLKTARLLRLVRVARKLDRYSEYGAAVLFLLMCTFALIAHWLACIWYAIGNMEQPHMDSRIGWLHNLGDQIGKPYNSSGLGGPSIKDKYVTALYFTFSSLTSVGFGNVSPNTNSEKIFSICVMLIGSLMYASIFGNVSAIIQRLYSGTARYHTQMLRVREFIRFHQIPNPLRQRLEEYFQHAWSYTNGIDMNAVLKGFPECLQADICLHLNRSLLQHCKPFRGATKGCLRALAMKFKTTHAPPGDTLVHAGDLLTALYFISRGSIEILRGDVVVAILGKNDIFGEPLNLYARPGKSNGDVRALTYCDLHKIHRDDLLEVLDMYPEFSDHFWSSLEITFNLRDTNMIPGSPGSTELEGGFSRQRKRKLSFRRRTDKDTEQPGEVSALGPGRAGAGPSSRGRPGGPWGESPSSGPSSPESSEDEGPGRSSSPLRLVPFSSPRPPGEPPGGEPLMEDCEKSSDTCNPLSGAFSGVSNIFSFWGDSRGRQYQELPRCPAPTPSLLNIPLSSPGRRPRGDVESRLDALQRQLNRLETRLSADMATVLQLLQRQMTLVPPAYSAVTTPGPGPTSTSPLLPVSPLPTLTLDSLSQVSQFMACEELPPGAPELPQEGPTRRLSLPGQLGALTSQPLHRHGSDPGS

| Compound | hERG current change (%, negative = inhibition) at 10uM |
| --- | --- |
| Cc1cccc(C(=O)NCCCN(C)CCCNC(=O)c2cccc(C)c2)c1 | -52.2% |
| Cc1ccc(NC(=O)CN(C)CC(=O)Nc2ccccc2-c2ccccc2)cc1 | -35.1% |
| COc1ccccc1NS(=O)(=O)c1cc(-c2cnc(C3CC3)o2)ccc1C | 3.37% |
| CC(C)(C)OC(=O)N1CCC(c2c(C(=O)NCC3CCN(C4CCCC4)C3)cnn2-c2ccc(F)cc2)CC1 (centres unmarked) | -50.5% |
| COc1cc(C(=O)Nc2cc(Cl)ccc2C)c(-n2cnnn2)cc1OC | 7.69% |
| OCCN(Cc1ccccc1)Cc1cccc(Cl)c1Cl | -1.57% |
| CCCc1c(C)nc(-c2ccc(C)cc2)nc1OC(=O)N(C)C | -6.78% |
| Cc1ccc(NC2CCCN(C(=O)CSc3ccncc3)C2)cc1C (centres unmarked) | -20.4% |
| O=C(CN1CCN(c2ccc(O)cc2)CC1)NC(=O)NCc1ccco1 | -8.38% |
| CCOC(=O)Nc1cc(=O)c2ccccc2o1 | -7.15% |
| O=C(NC1CCc2ccccc21)C1CCN(S(=O)(=O)c2ccc(-n3cnnn3)cc2)CC1 (centres unmarked) | -29.4% |
| CCOc1cccc(C(=O)Nc2ccccc2C(=O)N2CCOCC2)c1 | 10.2% |
| CC(C)CNC(=O)c1cccc(NC(=O)COc2cccc([N+](=O)[O-])c2)c1 | -24.7% |
| O=C1[C@H]2[C@@H](C(=O)N1c1cc(Cl)cc(Cl)c1)[C@]1(C(=O)Nc3ccccc31)N1CCC[C@@H]21 | -2.71% |
| Cc1ccc(-n2cc3ccc([N+](=O)[O-])cc3n2)cc1 | 5.28% |
| Cc1ccccc1C(C(=O)NC1CCCC1)N(C(=O)CNC(=O)c1ccco1)c1cccnc1 (centres unmarked) | -5.1% |
| O=S(=O)(NCC1OCCc2ccccc21)c1ccc(S(=O)(=O)N2CCOCC2)cc1 (centres unmarked) | -28.3% |
| Cc1cc(C)c(S(=O)(=O)N2CCC(C(=O)NCc3ccc(Cl)cc3Cl)CC2)c(C)c1 | -8.93% |
| O=C(Nc1nc2cc3c(cc2s1)OCCO3)c1ccco1 | 12.7% |
| COc1ccc(NC(=S)N2CCC(C(=O)c3ccc(F)cc3)CC2)c(OC)c1 | -16.7% |
| CCOC(=O)c1sc(=S)n(-c2ccccc2)c1NC(C)=O | 5.42% |
| O=C(Cn1[nH]c(=O)c2ccccc2c1=O)Nc1cccc(-c2nnc3n2CCCCC3)c1 | -10.4% |
| COc1cc(OC)c(NC(=O)c2ccccc2F)cc1Cl | -20.6% |

| Compound | hERG current change (%, negative = inhibition) at 10uM |
| --- | --- |
| COc1cccc(OCc2cc(C(=O)N3CCN(c4ccccc4O)CC3)no2)c1 | 4.71% |
| O=C(CCNC(=O)C1CCN(S(=O)(=O)c2ccccc2)CC1)NCc1ccc(Cl)c(Cl)c1 | -30.7% |
| CC(C)CC(=O)Nc1nnc(S(=O)(=O)N2CCCCCC2)s1 | -15% |
| C=CCNC(=S)NNC(=O)c1ccco1 | 2.45% |
| CCN(CC(=O)Nc1c(F)cccc1F)C(=O)C1CCC1 | -13.8% |
| CC(C)(C)n1nc2c(c1NC(=O)CCCc1ccccc1)CS(=O)C2 (centres unmarked) | 5.69% |
| COc1ccc(C)cc1NC(=S)N1CCN(c2ncccn2)CC1 | -8.99% |
| O=C(c1cccc2nccnc12)N1CCCC(Nc2ccc(F)c(F)c2)C1 (centres unmarked) | -1.4% |
| CCCCC(CCC(=O)Nc1nccs1)C(=O)O (centres unmarked) | 8.82% |
| CC(C)C[C@H](NC(=O)N1CCn2c1nc1ccccc12)C(=O)NCc1ccco1 | 10% |
| O=C(NCC1CCCN(C(=O)c2cc(Cl)ccc2F)C1)c1ccc(F)cc1 (centres unmarked) | -6.65% |
| COc1ccc(OC)c(C2C(C(=O)c3ccco3)=C(O)C(=O)N2CC2CCCO2)c1 (centres unmarked) | 13.1% |
| CCCc1nc(NCCCOCC)c2nnn(Cc3ccccc3)c2n1 | -3.78% |
| Cc1c(C(=O)N2CCN(C(=O)c3ccco3)CC2)sc2nc(-c3ccc(F)cc3)cn12 | -76.9% |
| O=C(NCC(=O)N1CCCC1)c1ccc(Cl)cc1 | 7.38% |
| Cc1ccc(C)c(OCC(=O)NC2CCCCCC2)c1 | 13% |
| Cc1cc(N2CCN(C(=O)Nc3ccc(F)cc3F)CC2)c2ccccc2n1 | -72.2% |
| CCC(C)NC(=O)CNC(=O)c1nn(-c2ccc(OC)cc2)c(=O)c2ccccc12 (centres unmarked) | 16.8% |
| COc1ccc(C2C3=C(CC(c4ccco4)CC3=O)Nc3ccccc3N2C(C)=O)cc1 (centres unmarked) | -7.88% |
| c1ccc(CCc2nc(-c3ccncc3)no2)cc1 | 4.06% |
| O=C(OCC(=O)N1CCCc2ccccc21)c1cccnc1Cl | -3.36% |
| COc1ccc(C(=O)NCc2cccnc2)cc1S(=O)(=O)N1CCOCC1 | 14.5% |
| O=C(/C=C/c1ccco1)NC1=NCCS1 | 13.7% |

| Compound | hERG current change (%, negative = inhibition) at 10uM |
| --- | --- |
| Cc1ccnc(NC(=O)C(C)N2C(=O)c3ccccc3C2=O)c1 (centres unmarked) | 8.86% |
| COc1ccc(C(=O)Nn2c(CC(C)C)nc3cc(Cl)ccc3c2=O)c(OC)c1 | 13.4% |
| CC(=O)Nc1nc(-c2cccc3ccccc23)cs1 | -9.32% |
| C#CCn1c(=NC(=O)c2ccc(Br)s2)sc2cccc(OC)c21 | 18.9% |
| COc1cc2c(cc1OC)CN(S(=O)(=O)c1ccc3c(c1)OCCO3)CC2 | -13.4% |
| COc1ccc(-n2c(CNC(=O)c3ccc(S(=O)(=O)N4CCCC4)cc3)n[nH]c2=S)cc1 | 12.2% |
| CCN1C(=O)/C(=C/N(C(C)=O)c2ccccc2)N(c2ccccc2)C1=S | -22.3% |
| Cc1ccc(/C=C2\C(=O)Nc3ccccc32)o1 | 5.04% |
| Br.CCOc1ccc(S(=O)(=O)NN2Cc3ccccc3C2=N)cc1 | 5.2% |
| O=C(C1=COCCO1)N1CCN(C(c2ccccc2)c2ccccc2)CC1 | -7.48% |
| CN(N=Nc1cccc([N+](=O)[O-])c1)c1cccc([N+](=O)[O-])c1 | 8.56% |
| COc1cc(/C=N/Nc2ccc(Cl)c(C(=O)O)c2)ccc1OC(=O)c1cccs1 | 1.7% |
| CCn1c(SCc2ccc(C(=O)Nc3nccs3)cc2)nnc1-c1ccc(NC(C)=O)cc1 | 1.21% |
| CCOC(=O)c1cc(C(=O)n2cc(Cl)cn2)nn1C | 10.6% |
| Cc1ncc([N+](=O)[O-])n1CC(=O)Nc1ccc2c(c1)OCO2 | 19.5% |
| Cc1ccc(C(=O)NCCc2nnc(SCC(=O)Nc3cccc(C(=O)O)c3)n2C)cc1 | 10.3% |
| COC(CNS(=O)(=O)c1ccc(S(=O)(=O)NC2CC2)cc1)OC | 22.3% |
| COC(=O)c1ccc(C)c(-n2c(C)cc(C=O)c2C)c1 | 9.86% |
| CN(C)/C=C1\NC(=S)N(c2ccc(Cl)cc2)C1=O | 17.4% |
| Cc1ccc(C)n1-c1ccccc1N | 9.14% |
| COc1ccc(C2C(C(=O)c3ccccc3)=C(C)Nc3nc4ccccc4n32)c(OC)c1 (centres unmarked) | 14.2% |
| Cc1ccc(S(=O)(=O)N2CCN(S(=O)(=O)N3CCOCC3)CC2)cc1 | 13.4% |
| O=C(Nc1ccccc1Cl)Oc1ccc(-c2ccccc2)cc1 | 8.23% |

| Compound | hERG current change (%, negative = inhibition) at 10uM |
| --- | --- |
| O=C(Nc1cccc(NC(=O)c2cccc(F)c2)c1)c1ccccc1 | 6.26% |
| O=C(COc1ccc(Cl)cc1)Nc1ccc2c(c1)OCO2 | 24.1% |
| Cc1cccc(N2CCN(Cc3nc(-c4ccccc4Cl)oc3C)CC2)n1 | -16.1% |
| N=C1C(c2nc3ccccc3s2)=C(O)CN1CCCO | -8.26% |
| Cc1cc(C(=O)O)cc(S(=O)(=O)N2CCOCC2)c1C | 1.95% |
| CC(C)c1ccc(Oc2cccc(C(=O)/C(C#N)=C/N(C)C)c2)cc1 | -14.6% |
| O=C(CN1CCc2ccccc2C1)Nc1cc(S(=O)(=O)N2CCOCC2)ccc1N1CCOCC1 | -8.99% |
| O=C(NCc1ccccc1)c1c(F)c(F)c(F)c(F)c1F | 12.8% |
| Cn1c(N2CCNCC2)nc2ccccc21 | -15.7% |
| Cc1nn(-c2ccc(Cl)cc2)c(=O)c2ccccc12 | 3.41% |
| Cc1ccc(C23CC4CC(CC(C(=O)NC(C)C(N)=O)(C4)C2)C3)cc1 (centres unmarked) | 0.796% |
| CCCCNCc1cc(OCC)c(OCC(N)=O)cc1Br | 2.18% |
| CCOc1nc2cnccc2n(CC(=O)Nc2ccc(C)c(C)c2)c1=O | 21.8% |
| Cc1nc(-c2ccccc2)sc1-c1n[nH]c(=S)n1C | 25.4% |
| O=C1CN(C(=O)COC(=O)CNC(=O)c2ccccc2)c2ccccc2N1 | 7.58% |
| COc1cc(/C=C/C(=O)O)cc(OC)c1 | 2.55% |
| Cc1ccc2c(CC(=O)NCc3cccs3)coc2c1 | 5.8% |
| CNC(=O)c1c(NC(=O)C2=COCCO2)sc2c1CCC(C)C2 (centres unmarked) | -15.1% |
| O=C(CCS(=O)(=O)c1cccs1)Nc1ccc(C(=O)NCc2ccccc2)cc1 | 19% |
| Cc1ccc(-c2n[nH]c(=O)c3ccccc23)cc1S(=O)(=O)N(C)CCO | -6.43% |
